PubChem BioAssay AID485294 (National Center for Advancing Translational Sciences (NCATS), 2010)
Hit rate of the full screen: of about 370,000 compounds, about 150 (0.041%) were called active. Inconclusive results, whose numbers are uncertain, are shown with a selection of clear calls. The call rests on the fitted dose curve; in most records, active means well fitted inhibition curve with a large enough effect; inconclusive means small, poorly fitted or top-dose-only effect; inactive means flat fitted curve, though single readings scatter. Potencies of inconclusive entries are left out as doubtful fits.

target: Beta-lactamase (Escherichia coli (strain K12)) (UniProt P00811); assay: qHTS Inhibitors of AmpC Beta-Lactamase (assay with detergent); details: AmpC hydrolysis of nitrocefin, absorbance 480 nm, 0.01% Triton; series mostly up to 114 µM; further: nearly all actives have a fitted effect of over 25% in size
Outline: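 20 mM phosphate pH 7.0 + 0.01% (detergent screen) or 0.0001% Triton X-100; 5.3 nM AmpC reagent; cpd preinc 15 min RT; nitrocefin (800 uM stock) to start; A480 q20 s × 4 min; Activity was normalised to no-enzyme and no-compound control wells.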
Potency means the concentration at half of the fitted maximal effect; tags describe the fitted curve by direction and shape.

Chain of UniProt P00811 (P00811 whole entry, looked up): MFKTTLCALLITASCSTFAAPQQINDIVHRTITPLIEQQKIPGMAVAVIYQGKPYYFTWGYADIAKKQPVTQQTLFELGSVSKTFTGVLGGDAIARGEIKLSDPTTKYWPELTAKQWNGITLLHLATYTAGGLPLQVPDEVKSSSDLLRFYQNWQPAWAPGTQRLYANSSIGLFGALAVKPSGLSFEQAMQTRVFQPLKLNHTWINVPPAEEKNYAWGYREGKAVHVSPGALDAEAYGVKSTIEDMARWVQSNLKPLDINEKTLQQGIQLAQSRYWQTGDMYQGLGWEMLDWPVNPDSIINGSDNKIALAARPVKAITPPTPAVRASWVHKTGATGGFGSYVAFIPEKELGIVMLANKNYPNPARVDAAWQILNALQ

SMILES | Potency
COc1cc(OC)c(C(=S)N2CCCC2)cc1OC | inconclusive [inhibitor, full curve, poor fit]
CCn1ccnc1CN(C)C(=O)c1ccc2nc(Cc3ccc(OC)cc3)oc2c1 | inconclusive [inhibitor, single point]
CC(C)c1onc(C(=O)Nc2ccc3c(c2)OCO3)c1[N+](=O)[O-] | inactive
CCN(CC)S(=O)(=O)c1ccc(C)c(NC(=S)N2CCN(C/C=C/c3ccccc3)CC2)c1 | inactive
COc1ccc(Br)cc1CNC(=O)CCCc1cn(C)c2ccccc12 | inconclusive [inhibitor, partial curve, poor fit]
O=C(NC1CCCC1)C(NS(=O)(=O)c1cccc2nsnc12)c1ccccc1 (stereo not drawn) | inconclusive [inhibitor, full curve, poor fit]
CC1CCC(NC(=O)c2ccc(-n3cncn3)c([N+](=O)[O-])c2)CC1 (stereo not drawn) | inconclusive [inhibitor, partial curve, poor fit]
CCN1C(=NCCCOC(C)C)N[C@@H](CCc2ccccc2)[C@H](C(=O)NCCCOC(C)C)[C@H]1C | inconclusive [inhibitor, full curve, poor fit]
CCOC(=O)N1CCC(NC(=O)c2sc3nc4n(c(=O)c3c2C)CCCC4)CC1 | inactive
O=C(COC(=O)Cc1cn2ccsc2n1)NCc1ccc2c(c1)OCO2 | inactive
CC(C)CC(NS(=O)(=O)c1ccc2c(c1)oc(=O)n2C)C(=O)NCc1cccnc1 (stereo not drawn) | inconclusive [inhibitor, full curve, poor fit]
COc1ccccc1-c1nc2n(n1)C(c1ccccc1Cl)C(C(=O)Nc1cccnc1)=C(C)N2 (stereo not drawn) | inactive
COC(=O)c1ccc(-c2noc(CN3C[C@H]4CC[C@H]3C4)n2)cc1 | inactive
CCCCn1cc(S(=O)(=O)c2ccc(C)cc2)c(=O)c2cc(F)c(N3CCCCC3)cc21 | inactive
CCOc1ccccc1NC(=O)CSc1nnc2[nH]c(=O)cc(C)n12 | inactive
COc1ccccc1C(CNC(=O)c1cccc(NS(=O)(=O)c2ccc(C)c(F)c2)c1)N1CCCC1 (stereo not drawn) | inconclusive [inhibitor, full curve, poor fit]
CCOC(=O)Cn1nc(C)c(-c2ccccc2)c1N | inconclusive [inhibitor, full curve, poor fit]
COc1cc(C=O)ccc1OCc1ccncc1 | inconclusive [inhibitor, full curve, poor fit]
COc1ccc(NC(=O)Nc2cc(NC(=O)Nc3ccc(OC)cc3)c(C)nc2C)cc1 | inconclusive [inhibitor, partial curve, poor fit]
Cc1ccc(CNC(=O)COc2cc(O)c3c(c2)OC(C)(C)CC3=O)cc1 | inconclusive [inhibitor, full curve, poor fit]
CC(C(=O)c1ccc2ccccc2c1)N1CCCCC1 (stereo not drawn) | inconclusive [inhibitor, full curve, poor fit]
c1ccc(Nc2nc(-c3cccnc3)cs2)nc1 | inactive

SMILES | Potency
Cc1ccc(S(=O)(=O)N2CC(O)C[C@H]2C(=O)OCC(=O)Nc2ccc(N3CCCCC3)cc2)cc1C (stereo partly drawn) | inactive
Cc1ccc(N(CC(=O)NC2CCCCC2)C(=O)CCCC(=O)Nc2ccccn2)c(C)c1 | inconclusive [inhibitor, partial curve, poor fit]
O=C(N/N=C/c1ccc(Br)o1)c1cncc(Br)c1 | inconclusive [inhibitor, full curve, poor fit]
CCOC(=O)c1cnc2cc(C(F)(F)F)ccc2c1Nc1cc(C)ccc1OC | inactive
COc1ccc2oc(C(=O)NCCC(C)C)c(C)c2c1 | inconclusive [inhibitor, full curve]
CC(Sc1nc(N)cc(=O)[nH]1)C(=O)Nc1sc2c(c1C#N)CCCC2 (stereo not drawn) | inactive
COC(=O)[C@@]1(Cc2ccc(F)cc2)[C@H]2c3cc(C(=O)N(C)C)n(Cc4nc5ccccc5[nH]4)c3C[C@H]2CN1C(=O)c1ccccc1 | inactive
Cc1ccc(N=Cc2c(C)[nH]n(-c3nc4ccccc4[nH]3)c2=O)cc1 | inactive
CC(=O)NCCC(=O)Nc1ncc(S(=O)(=O)c2ccc([N+](=O)[O-])cc2)s1 | inconclusive [inhibitor, full curve, poor fit]
CC(=O)N1c2ccccc2C(=O)C1N1CCN(c2ccccc2F)CC1 (stereo not drawn) | inactive
C[n+]1ccccc1C1CCCC/C1=N\NC(N)=S (stereo not drawn) | inactive
COC(=O)C1=C(C(=O)OC)C2(OC1c1ccccc1C)C(=O)c1ccccc1C2=O (stereo not drawn) | inconclusive [inhibitor, full curve, poor fit]
COc1ccccc1-n1c(SCC(=O)Nc2cccc(C(=O)O)c2)nnc1-c1ccccc1O | inconclusive [inhibitor, partial curve]
COc1cccc(-c2nc(CS(=O)(=O)CC(=O)NCCCOC(C)C)c(C)o2)c1 | inconclusive [inhibitor, partial curve, poor fit]
CCC12CCCN3CCC4(C(=C(C(=O)OC)C1)Nc1ccccc14)C32 (stereo not drawn) | inconclusive [inhibitor, full curve]
COC(=O)/C(=C/c1ccco1)NC(=O)c1ccco1 | inactive
Nc1nc2c(s1)C(=O)CCC2 | inconclusive [inhibitor, full curve, poor fit]
CS(=O)(=O)N(CC(=O)Nc1ccccc1)Cc1ccc(Cl)cc1 | inconclusive [inhibitor, full curve, poor fit]
CCOC(=O)c1c(NC(=O)C2CCCN(S(=O)(=O)c3ccc(C)cc3)C2)sc2c1CCCC2 (stereo not drawn) | inconclusive [inhibitor, partial curve, poor fit]
O=C(c1cccn2c(=O)c3ccc(Cl)cc3nc12)N1CCC2(CC1)OCCO2 | inconclusive [inhibitor, single point]
O=C(c1ccccc1)c1ccc(N2CCCC2)cc1 | inconclusive [inhibitor, full curve]
